Measurements from PubChem BioAssay AID264 (DTP/NCI, 2004).
Results filed as inconclusive are left out. Certain results were filed several times, with different values. This list holds those alone. The source may hold further records. Values given together are repeated measurements in other runs, samples, wells, individuals or studies. Marks such as (2×) count equal records among those shown.

System: nude mice, LX-1 lung xenograft intrarenal, tumor weight T/C
Assay: NCI In Vivo Anticancer Drug Screen. Data for tumor model Human Lung LX-1 Xenograft (intrarenal inoculation) in NU/NU Swiss (nude) mice
Settings: endpoint: mean tumor weight change, higher = larger tumour
Experimental: The antitumor activity of compounds was measured in mice bearing transplantable tumors. Survival or tumor size were measured and the results are expressed as the measurement made in the treated group (T) divided by the measurement made in the vehicle treated control group (C). The tumor model used in this assay is Human Lung LX-1 Xenograft (intrarenal inoculation) in NU/NU Swiss (nude) mice

[1] = dose: 8.0 mg/kg/injection, schedule: Q01DX010 (sc), vehicle: saline
[2] = dose: 25.0 mg/kg/injection, schedule: Q01DX010 (sc), vehicle: Klucel (hydroxypropylcellulose) (HPC)
[3] = dose: 200.0 mg/kg/injection, schedule: Q01DX010 (sc), vehicle: saline with Tween-80
[4] = dose: 25.0 mg/kg/injection, schedule: Q01DX010 (sc), vehicle: saline with Tween-80
[5] = dose: 50.0 mg/kg/injection, schedule: Q01DX010 (sc), vehicle: saline with Tween-80
[6] = dose: 100.0 mg/kg/injection, schedule: Q01DX010 (sc), vehicle: saline with Tween-80
[7] = dose: 400.0 mg/kg/injection, schedule: Q01DX010 (sc), vehicle: saline with Tween-80

## CC1=CC(=Nc2ccc(N(CCCl)CCCl)cc2)C=C(C)C1=O
dose: 150.0 mg/kg/injection, schedule: Q04DX003 (sc), vehicle: Klucel (hydroxypropylcellulose) (HPC)
  T/C: 34 % of control, 78 % of control, 87 % of control
dose: 300.0 mg/kg/injection, schedule: Q04DX003 (sc), vehicle: Klucel (hydroxypropylcellulose) (HPC)
  T/C: 63 % of control and 97 % of control
dose: 600.0 mg/kg/injection, schedule: Q04DX003 (sc), vehicle: Klucel (hydroxypropylcellulose) (HPC)
  T/C: 20 % of control, 53 % of control, 87 % of control
dose: 1200.0 mg/kg/injection, schedule: Q04DX003 (sc), vehicle: Klucel (hydroxypropylcellulose) (HPC)
  T/C: 32 % of control and 63 % of control

## N#C[Se-].c1ccc([Te+](c2ccccc2)c2ccccc2)cc1
dose: 50.0 mg/kg/injection, schedule: Q04DX003 (sc), vehicle: Klucel (hydroxypropylcellulose) (HPC)
  T/C: 60 % of control and 197 % of control

## CC1CN1P1(N2CC2C)=NP(N2CC2C)(N2CC2C)=NP(N2CC2C)(N2CC2C)=N1 (stereo not given)
dose: 25.0 mg/kg/injection, schedule: Q01DX010 (sc), vehicle: saline
  T/C: 48 % of control, 64 % of control, 109 % of control

## CC1=C(C)C(=O)O[C@@H]([C@](C)(O)[C@]2(O)CC[C@@]3(O)[C@@H]4C[C@H]5O[C@]56[C@@H](O)C=CC(=O)[C@]6(C)[C@H]4CC[C@]23C)C1
[1]
  T/C: 77 % of control and 110 % of control
dose: 16.0 mg/kg/injection, schedule: Q01DX010 (sc), vehicle: saline
  T/C: 81 % of control, 83 % of control, 114 % of control
dose: 32.0 mg/kg/injection, schedule: Q01DX010 (sc), vehicle: saline
  T/C: 60 % of control, 86 % of control, 114 % of control

## CCCNC1=C(C)C(=O)C2=C(C1=O)[C@H](COC(N)=O)[C@]1(OC)[C@@H]3N[C@@H]3CN21
dose: 6.0 mg/kg/injection, schedule: Q04DX003 (sc), vehicle: suspension in saline
  T/C: 43 % of control and 70 % of control
dose: 12.0 mg/kg/injection, schedule: Q04DX003 (sc), vehicle: suspension in saline
  T/C: 23 % of control, 30 % of control, 97 % of control

## CC1CN1C(=O)NCCCCCCNC(=O)N1CC1C (stereo not given)
dose: 20.0 mg/kg/injection, schedule: Q04DX003 (sc), vehicle: Klucel (hydroxypropylcellulose) (HPC)
  T/C: 20 % of control and 64 % of control

## CN(C)N=Nc1ccccc1
[2]
  T/C: -91 % of control and 22 % of control

## O=C(Nc1nncs1)c1ccncc1
[3]
  T/C: 62 % of control and 92 % of control

## O=C1C2CC=CCC2C(=O)N1SC(Cl)(Cl)Cl (stereo not given)
[4]
  T/C: 67 % of control and 115 % of control

## S=C=NCCc1ccccc1
[4]
  T/C: 39 % of control, 73 % of control, 83 % of control
[5]
  T/C: 26 % of control, 99 % of control, 110 % of control
[6]
  T/C: 5 % of control, 59 % of control, 103 % of control

## O=C1NC2(CCCCC2)C(=O)N1CCN(CCCl)CCCl
dose: 12.0 mg/kg/injection, schedule: Q01DX010 (sc), vehicle: suspension in saline
  T/C: 55 % of control and 252 % of control
dose: 24.0 mg/kg/injection, schedule: Q01DX010 (sc), vehicle: suspension in saline
  T/C: 18 % of control and 81 % of control
dose: 48.0 mg/kg/injection, schedule: Q01DX010 (sc), vehicle: suspension in saline
  T/C: 28 % of control and 61 % of control

## COC1C(O)CC(OC2CC(OC3CC(O[C@@H]4C(=O)c5c(cc6cc(OC7CC(OC8CC(O)C(O)C(C)O8)C(O)C(C)O7)c(C)c(O)c6c5O)C[C@H]4[C@H](OC)C(=O)[C@@H](O)[C@@H](C)O)OC(C)C3O)OC(C)C2O)OC1C (stereo not given in full)
dose: 0.75 mg/kg/injection, schedule: Q01DX010 (sc), vehicle: saline
  T/C: -88 % of control and 42 % of control
dose: 1.5 mg/kg/injection, schedule: Q01DX010 (sc), vehicle: saline
  T/C: -51 % of control, -29 % of control, 2 % of control
dose: 3.0 mg/kg/injection, schedule: Q01DX010 (sc), vehicle: saline
  T/C: -66 % of control and 1 % of control

## [N-]=[N+]=CC(=O)CCC(N)C(=O)O (stereo not given)
dose: 0.1 mg/kg/injection, schedule: Q01DX010 (sc), vehicle: saline
  T/C: 28 % of control and 76 % of control
dose: 0.2 mg/kg/injection, schedule: Q01DX010 (sc), vehicle: saline
  T/C: 39 % of control and 65 % of control

## C1OC1CN1CCN(CC2CO2)CC1 (stereo not given)
[1]
  T/C: 32 % of control and 79 % of control

## COc1cccc2c1C(=O)c1c(O)c3c(c(O)c1C2=O)CC(O)(/C(C)=N/NC(=O)CCCCC(=O)N/N=C(\C)C1(O)Cc2c(O)c4c(c(O)c2C(OC2CC(N)C(O)C(C)O2)C1)C(=O)c1c(OC)cccc1C4=O)CC3OC1CC(N)C(O)C(C)O1 (stereo not given)
dose: 75.0 mg/kg/injection, schedule: Q04DX003 (sc), vehicle: water
  T/C: -100 % of control and 21 % of control

## O=C(O)C1(C(=O)O)CCC1.[NH2-].[NH2-].[Pt+2]
dose: 50.0 mg/kg/injection, schedule: Q01DX010 (sc), vehicle: dextrose
  T/C: 27 % of control and 58 % of control

## O=c1[nH]c(=O)n(C2CC(O)C(CO)O2)cc1I (stereo not given)
[6]
  T/C: 41 % of control, 71 % of control, 76 % of control
[3]
  T/C: 14 % of control, 37 % of control, 64 % of control
[7]
  T/C: 19 % of control and 53 % of control

## CC1OC(=O)C(C(C)C)NC(=O)C(C(C)C)OC(=O)C(C(C)C)NC(=O)C(C)OC(=O)C(C(C)C)NC(=O)C(C(C)C)OC(=O)C(C(C)C)NC(=O)C(C)OC(=O)C(C(C)C)NC(=O)C(C(C)C)OC(=O)C(C(C)C)NC1=O (stereo not given)
dose: 10.0 mg/kg/injection, schedule: Q01DX010 (sc), vehicle: saline with Tween-80
  T/C: 60 % of control and 92 % of control

## O=Cc1ccc(C(Cl)(Cl)Cl)cc1
[6]
  T/C: 66 % of control and 223 % of control
[7]
  T/C: 89 % of control and 195 % of control

## Nc1ncn(C2OC(CO)C(O)C2O)c(=O)n1 (stereo not given)
dose: 400.0 mg/kg/injection, schedule: Q04DX003 (sc), vehicle: suspension in saline
  T/C: 33 % of control and 60 % of control

## CC(=O)[O][Pb]([O]C(C)=O)([c]1ccccc1)[c]1ccccc1
dose: 200.0 mg/kg/injection, schedule: Q01DX010 (sc), vehicle: Klucel (hydroxypropylcellulose) (HPC)
  T/C: 39 % of control and 78 % of control
dose: 800.0 mg/kg/injection, schedule: Q01DX010 (sc), vehicle: Klucel (hydroxypropylcellulose) (HPC)
  T/C: 42 % of control and 97 % of control

## S=c1nc[nH]c2nc[nH]c12
dose: 12.5 mg/kg/injection, schedule: Q01DX010 (sc), vehicle: Klucel (hydroxypropylcellulose) (HPC)
  T/C: 40 % of control, 67 % of control, 68 % of control
[2]
  T/C: 47 % of control and 79 % of control

## COc1cccc2c1C(=O)c1c(O)c3c(c(O)c1C2=O)C[C@@](O)(/C(C)=N/NC(=O)c1ccccc1)C[C@@H]3OC1CC(N)C(O)C(C)O1 (stereo not given in full)
dose: 5.0 mg/kg/injection, schedule: Q04DX003 (sc), vehicle: water
  T/C: 46 % of control and 82 % of control

## CN1CCN(Cc2nc3cccc4c3c([n+]2[O-])-c2ccccc2-4)CC1
[6]
  T/C: 110 % of control and 160 % of control

## CCCCCCCCCCCCCCCC(=O)OCC1OC(n2ccc(N)nc2=O)C(O)C1O (stereo not given)
dose: 75.0 mg/kg/injection, schedule: Q04DX003 (sc), vehicle: saline with Tween-80
  T/C: 14 % of control, 29 % of control, 51 % of control
dose: 150.0 mg/kg/injection, schedule: Q04DX003 (sc), vehicle: saline with Tween-80
  T/C: -17 % of control and 14 % of control (2×)

## C/C(=N/NC(N)=S)c1ccc2ccccc2c1
[5]
  T/C: 37 % of control and 196 % of control
[6]
  T/C: 44 % of control and 119 % of control

## OCCOCCN1CCN(CCCN2c3ccccc3Sc3ccc(C(F)(F)F)cc32)CC1
dose: 6.0 mg/kg/injection, schedule: Q01DX010 (sc), vehicle: saline
  T/C: 74 % of control and 150 % of control
dose: 48.0 mg/kg/injection, schedule: Q01DX010 (sc), vehicle: saline
  T/C: 70 % of control and 117 % of control

## CCCCc1ccc2nc(NC(=O)OC)[nH]c2c1
[3]
  T/C: 65 % of control, 91 % of control, 99 % of control
[7]
  T/C: 57 % of control, 80 % of control, 101 % of control
dose: 800.0 mg/kg/injection, schedule: Q01DX010 (sc), vehicle: saline with Tween-80
  T/C: 18 % of control, 38 % of control, 92 % of control

## Cc1cc(NCCCCCCCCNc2cc(C)nc3cc(N(C)C)ccc23)c2ccc(N(C)C)cc2n1
dose: 75.0 mg/kg/injection, schedule: Q01DX010 (sc), vehicle: saline with Tween-80
  T/C: 45 % of control and 104 % of control

## CCC1CC2CN(CCc3c([nH]c4ccccc34)C(C(=O)OC)(c3cc4c(cc3OC)N(C)C3C(O)(C(=O)OC)C(OC(C)=O)C5(CC)C=CCN6CCC43C65)C2)C1 (stereo not given)
dose: 2.0 mg/kg/injection, schedule: Q04DX003 (sc), vehicle: saline
  T/C: 53 % of control and 116 % of control
dose: 8.0 mg/kg/injection, schedule: Q04DX003 (sc), vehicle: saline
  T/C: 12 % of control and 45 % of control

## Nc1nc(F)nc2c1ncn2C1OC(COP(=O)(O)O)C(O)C1O (stereo not given)
dose: 200.0 mg/kg/injection, schedule: Q01DX010 (sc), vehicle: saline
  T/C: -36 % of control and 16 % of control
